One experiment concerns HSkMC. As to the kind of experiment: cytotoxicity call (relative viability < 0.9). The following applies: 10 µM.
Another experiment has as its system HepG2. As to the kind of experiment: cytotoxicity call (relative viability < 0.9). The following applies: 10 µM.
The next experiment concerns S. aureus RN4220. Put plainly: growth inhibition call (relative growth <= 0.2). As to conditions: 50 µM.

We go through 27 molecules from the antibiotic and cytotoxicity screens of Wong et al. (2023).

Some of the results follow.

Regarding `CC(C)(C)c1cc2[nH]c(N)nc(=N)n2n1`, the cytotoxicity call in the experiment on HSkMC and with HepG2 was “inactive” each time. Moreover, in the experiment on S. aureus RN4220, the growth inhibition call is “inactive”.
Regarding `CN1C(=O)c2cc(NC(=O)c3ccc(F)c(F)c3)ccc2OC[C@H]2O[C@H](CC(=O)N3CCOCC3)CC[C@@H]21`, the cytotoxicity call in the experiment on HSkMC and with HepG2 was “inactive” each time. Moreover, the growth inhibition call with S. aureus RN4220 was “inactive”.
On to `C[C@H]1CN([C@@H](C)CO)C(=O)Cc2cc(NC(=O)Cc3ccccc3)ccc2O[C@H]1CN(C)S(C)(=O)=O`, for which the cytotoxicity call with HSkMC and in the experiment on HepG2 was “inactive” in each case. For the same molecule, the growth inhibition call in the experiment with S. aureus RN4220 was “inactive”.
With `O=C(C[C@H]1CC[C@H](NC(=O)CN2CCOCC2)[C@H](CO)O1)NC1CCC1`, the cytotoxicity call in the experiment on HSkMC and with HepG2 was “inactive” throughout. Further, in the experiment with S. aureus RN4220, the growth inhibition call was “inactive”.
Turning to `C[C@@H]1CN([C@@H](C)CO)C(=O)CCCn2cc(nn2)CO[C@H]1CN(C)C(=O)Nc1ccc(C(F)(F)F)cc1`, the cytotoxicity call in the experiment on HSkMC and in the experiment with HepG2 was “inactive” each time. Moreover, the growth inhibition call with S. aureus RN4220 was “inactive”.
Turning to `C[C@H](CO)N1C[C@H](C)[C@@H](CN(C)Cc2ccc(Oc3ccccc3)cc2)Oc2c(NC(=O)c3nc4ccccc4s3)cccc2C1=O`, the cytotoxicity call in the experiment on HSkMC was “inactive”. The cytotoxicity call with HepG2 is “active”. Moreover, the growth inhibition call in the experiment with S. aureus RN4220 is “inactive”.
For `C[C@@H]1CCCCO[C@@H](CN(C)Cc2ccc(C(F)(F)F)cc2)[C@@H](C)CN([C@H](C)CO)C(=O)c2cc(NC(=O)Nc3cccc4ccccc34)ccc2O1`, the cytotoxicity call in the experiment on HSkMC and with HepG2 was “inactive” in each case. In addition, the growth inhibition call with S. aureus RN4220 is “inactive”.
Consider `O=C(C1=C[C@H](c2coc3ccccc3c2=O)C[C@H](OCCCCO)O1)N1CCOCCOCCOCCOCC1`, for which the cytotoxicity call in the experiment with HSkMC and in the experiment on HepG2 was “inactive” throughout. In addition, the growth inhibition call in the experiment on S. aureus RN4220 was “inactive”.
As for `CC(C)NC(=O)N(C)C[C@H]1Oc2ccc(NC(=O)CCN3CCOCC3)cc2CC(=O)N([C@@H](C)CO)C[C@@H]1C`, the cytotoxicity call with HSkMC and with HepG2 was “inactive” each time. Besides, the growth inhibition call in the experiment with S. aureus RN4220 was “inactive”.
As to `N#Cc1nn(-c2ccccc2)c(=O)[nH]c1=O`, the cytotoxicity call with HSkMC and in the experiment with HepG2 was “inactive” each time. Also, the growth inhibition call in the experiment on S. aureus RN4220 was “inactive”.
Take `C[C@H](CO)N1C[C@H](C)[C@@H](CN(C)S(=O)(=O)c2cn(C)cn2)Oc2cc(C#Cc3ccc(F)cc3)ccc2S1(=O)=O`: the cytotoxicity call in the experiment on HSkMC and in the experiment on HepG2 was “inactive” throughout. Further, in the experiment with S. aureus RN4220, the growth inhibition call is “inactive”.
On to `C[C@H]1CN([C@@H](C)CO)C(=O)c2cc(NC(=O)C3CC3)ccc2O[C@@H]1CN(C)Cc1ccc(C(=O)O)cc1`, for which the cytotoxicity call in the experiment on HSkMC and with HepG2 was “inactive” each time. Besides, the growth inhibition call with S. aureus RN4220 was “inactive”.
On to `CN1CCN(C(=O)C[C@@H]2CC[C@H](NC(=O)Cc3ccccn3)[C@@H](CO)O2)CC1`, for which the cytotoxicity call with HSkMC and in the experiment on HepG2 was “inactive” in each case. Also, in the experiment with S. aureus RN4220, the growth inhibition call was “inactive”.
With `C[C@@H]1CN([C@@H](C)CO)C(=O)c2cc(NS(=O)(=O)c3ccc(F)cc3)ccc2O[C@@H](C)CCCCO[C@H]1CN(C)Cc1ccc(C(F)(F)F)cc1`, the cytotoxicity call in the experiment with HSkMC and in the experiment with HepG2 was “inactive” throughout. Also, the growth inhibition call with S. aureus RN4220 is “inactive”.
On to `COc1ccc2c3c([nH]c2c1)[C@@H](CO)N(C[C@]13CCN(CC1)Cc1ccccc1)C(=O)CN1CCOCC1`, for which the cytotoxicity call with HSkMC and in the experiment on HepG2 was “inactive” each time. Besides, in the experiment on S. aureus RN4220, the growth inhibition call is “inactive”.
As to `C[C@H](CO)N1C[C@H](C)[C@H](CN(C)C(=O)Nc2ccc(C(F)(F)F)cc2)OCCCC[C@H](C)Oc2ccc(N(C)C)cc2C1=O`, the cytotoxicity call with HSkMC and in the experiment with HepG2 was “inactive” throughout. In addition, in the experiment on S. aureus RN4220, the growth inhibition call is “inactive”.
As for `CN(C)CCCNC(=O)[C@H]1[C@H](CO)[C@H]2Cn3c(ccc(-c4cccc(C(=O)N(C)C)c4)c3=O)[C@@H]1N2`, the cytotoxicity call in the experiment on HSkMC and in the experiment on HepG2 was “inactive” throughout. Moreover, the growth inhibition call with S. aureus RN4220 was “inactive”.
Consider `O=C([O-])CCC(=O)OCC(NC(=O)C(Cl)Cl)C(O)c1ccc([N+](=O)[O-])cc1.[Na+]` (stereo unspecified), for which the cytotoxicity call in the experiment with HSkMC is “inactive”. In addition, the cytotoxicity call with HepG2 is “active”. Also, the growth inhibition call with S. aureus RN4220 was “inactive”.
`COc1ccc(S(=O)(=O)N(C)C[C@@H]2Oc3c(NC(=O)C4CC4)cccc3C(=O)N([C@@H](C)CO)C[C@@H]2C)cc1`: the cytotoxicity call in the experiment with HSkMC and in the experiment with HepG2 was “inactive” throughout. For the same molecule, the growth inhibition call in the experiment on S. aureus RN4220 is “inactive”.
Regarding `C[C@@H]1CN([C@@H](C)CO)C(=O)Cc2cc(NC(=O)C3CCCCC3)ccc2O[C@@H]1CN(C)Cc1ccc(Oc2ccccc2)cc1`, the cytotoxicity call in the experiment on HSkMC and in the experiment on HepG2 was “inactive” each time. Moreover, the growth inhibition call in the experiment with S. aureus RN4220 is “inactive”.
In the case of `C[C@@H]1CN([C@H](C)CO)C(=O)c2cc(NC(=O)Nc3ccc(F)cc3)ccc2O[C@H]1CN(C)Cc1ccc(Oc2ccccc2)cc1`, in the experiment on HSkMC, the cytotoxicity call is “inactive”. Moreover, the cytotoxicity call in the experiment on HepG2 was “active”. Also, in the experiment on S. aureus RN4220, the growth inhibition call was “inactive”.
Consider `COc1ccc(S(=O)(=O)Nc2ccc3c(c2)C(=O)N([C@@H](C)CO)C[C@H](C)[C@H](CN(C)C(=O)Nc2cccc4ccccc24)OCCCC[C@H](C)O3)cc1`, for which the cytotoxicity call in the experiment with HSkMC was “inactive”. The cytotoxicity call with HepG2 was “active”. Also, the growth inhibition call with S. aureus RN4220 was “inactive”.
In the case of `O=c1cc(-c2cc(O)c(O)c(O)c2)oc2cc(O)cc(O)c12`, the cytotoxicity call with HSkMC and in the experiment on HepG2 was “inactive” in each case. Also, the growth inhibition call in the experiment on S. aureus RN4220 is “inactive”.
On to `C[C@@H]1CCCCO[C@H](CN(C)C(=O)c2ccncc2)[C@H](C)CN([C@H](C)CO)C(=O)c2cc(NC(=O)NC3CCCCC3)ccc2O1`, for which the cytotoxicity call in the experiment on HSkMC (human skeletal muscle cells) and in the experiment with HepG2 was “inactive” in each case. In the experiment with S. aureus RN4220, the growth inhibition call was “inactive”.
For `C[C@H]1CN([C@@H](C)CO)C(=O)c2cccc(NS(=O)(=O)c3cn(C)cn3)c2O[C@@H]1CN(C)Cc1ccccc1`, the cytotoxicity call with HSkMC and in the experiment with HepG2 was “inactive” each time. Besides, the growth inhibition call with S. aureus RN4220 was “inactive”.
Turning to `COc1ccc(C2=N[C@H](c3ccc(Cl)cc3)[C@H](c3ccc(Cl)cc3)N2C(=O)N2CCNC(=O)C2)c(OC(C)C)c1`, the cytotoxicity call with HSkMC and with HepG2 was “inactive” in each case. Further, the growth inhibition call in the experiment on S. aureus RN4220 is “inactive”.
On to `C[C@@H]1CN([C@H](C)CO)S(=O)(=O)c2ccc(-c3cncnc3)cc2O[C@@H]1CN(C)C(=O)Cc1cccnc1`, for which the cytotoxicity call with HSkMC and in the experiment with HepG2 was “inactive” throughout. For the same molecule, the growth inhibition call in the experiment on S. aureus RN4220 is “inactive”.
